{"source": "PubChem BioAssay AID1030", "about": "(National Center for Advancing Translational Sciences (NCATS), 2008)", "note": "The whole screen tested about 220,000 compounds, of which about 16,000 (7.3%) were called active. The shares of active, inactive and inconclusive entries below differ from those in the screen. Calls come from the whole dose curve; as a rule, active = well fitted inhibition curve with a large enough effect (not every such curve was filed as active); inconclusive = small, poorly fitted or top-dose-only effect, or another doubt; inactive = no such curve, though single readings can be large or run the other way. Potencies of inconclusive entries are left out as doubtful fits. Potency is the fitted concentration of half-maximal effect; tags give direction and shape of the fitted curve."}
{"target": "Aldehyde dehydrogenase 1A1 (Homo sapiens) (UniProt P00352)", "sequence (P00352 whole entry, looked up)": "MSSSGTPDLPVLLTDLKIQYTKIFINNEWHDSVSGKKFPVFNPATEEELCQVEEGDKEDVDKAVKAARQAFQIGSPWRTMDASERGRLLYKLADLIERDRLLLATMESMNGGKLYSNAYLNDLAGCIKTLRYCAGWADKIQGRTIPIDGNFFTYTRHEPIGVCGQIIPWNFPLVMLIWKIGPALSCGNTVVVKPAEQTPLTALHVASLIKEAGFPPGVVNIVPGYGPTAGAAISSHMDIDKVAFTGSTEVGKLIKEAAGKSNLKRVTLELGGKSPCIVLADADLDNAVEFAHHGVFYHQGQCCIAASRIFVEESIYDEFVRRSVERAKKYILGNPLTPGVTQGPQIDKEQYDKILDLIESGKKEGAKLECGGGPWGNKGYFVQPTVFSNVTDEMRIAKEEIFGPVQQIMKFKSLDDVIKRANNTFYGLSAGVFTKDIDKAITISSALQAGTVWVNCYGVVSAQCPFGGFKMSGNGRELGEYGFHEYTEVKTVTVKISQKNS", "assay": "qHTS Assay for Inhibitors of Aldehyde Dehydrogenase 1 (ALDH1A1)", "conditions": "Purified ALDH1A1, NADH fluorescence, propionaldehyde substrate; series mostly up to 75.3 µM"}
{"smiles": "Cc1ccc(NC(=S)Nc2ccc3[nH]c(=O)[nH]c3c2)cc1C", "Potency": "inconclusive [inhibitor, single point]"}
{"smiles": "O=C(CSc1nc(-c2ccccc2)cs1)NC(=O)NCc1ccco1", "Potency": "inconclusive [inhibitor, single point]"}
{"smiles": "COc1ccccc1C1CN(c2ccc(F)cc2F)N=C1c1cccs1", "note": "(stereo not given)", "Potency": "inconclusive [inhibitor, partial curve]"}
{"smiles": "CCCCN(CCCC)S(=O)(=O)c1ccc(SCC(=O)OCC)c([N+](=O)[O-])c1", "Potency": "inconclusive [inhibitor, partial curve]"}
{"smiles": "Cc1ccsc1/C=C1\\SC(=S)N(CC2CCCO2)C1=O", "note": "(stereo not given)", "Potency": "active: 1 µM"}
{"smiles": "CCCCCn1c(SCCOCC)nc2c1c(=O)[nH]c(=O)n2C", "Potency": "inconclusive [inhibitor, single point]"}
{"smiles": "Cc1nc(SCC(=O)NCc2ccco2)c2c3c(sc2n1)CCCC3", "Potency": "active: 10 µM"}
{"smiles": "COc1ccc(CCNC(=O)CSc2nc(-c3ccco3)cc(C(F)(F)F)n2)cc1OC", "Potency": "inactive"}
{"smiles": "Cc1ccccc1-c1ccc2ncnc(NCc3cccs3)c2c1", "Potency": "inconclusive [inhibitor, partial curve]"}
{"smiles": "COc1cc2c(C(=O)NCCCOC(C)C)cn(CC(C)C)c(=O)c2cc1OC", "Potency": "inconclusive [inhibitor, single point]"}
{"smiles": "CNc1oc(C)nc1S(=O)(=O)c1ccc(C)cc1", "Potency": "inconclusive [inhibitor, single point]"}
{"smiles": "Cc1ccc(OCCCNC2CCCC2)cc1", "Potency": "inactive"}
{"smiles": "COc1cc(C(=O)NNC(=S)Nc2ccc(S(N)(=O)=O)cc2)cc(OC)c1OC", "Potency": "active: 10 µM"}
{"smiles": "Cc1cc(NC(=O)c2ccc(-c3ccc(F)c(Cl)c3)o2)no1", "Potency": "inconclusive [inhibitor, single point]"}
{"smiles": "Cc1cccc(-c2noc(-c3cc4ccccc4oc3=O)n2)c1", "Potency": "inconclusive [inhibitor, single point]"}
{"smiles": "CCn1nc(C)c(/C=N/NC(=O)c2ccc3c(c2)c(C)c(C)n3Cc2ccccc2)c1C", "Potency": "inconclusive [inhibitor, single point]"}
{"smiles": "CCN(CC)S(=O)(=O)c1cc(C(=O)NC2CCCCC2)ccc1C", "Potency": "inactive"}
{"smiles": "COc1ccc(CN2C(=O)CN=C2Nc2cccc(C)c2C)cc1", "Potency": "inconclusive [inhibitor, single point]"}
{"smiles": "Cc1ccc(CNC(=O)CSc2c3c(nc4cc(Cl)ccc24)CCCC3)o1", "Potency": "active: 20 µM"}
{"smiles": "Cc1ccc(Nc2nnc(-c3ccc(N4CCOCC4)c([N+](=O)[O-])c3)c3ccccc23)cc1", "Potency": "inconclusive [inhibitor, single point]"}
{"smiles": "Cc1ccccc1CNS(=O)(=O)c1ccc2c(c1)OCCO2", "Potency": "inactive"}
{"smiles": "Cc1ccc(S(=O)(=O)N2CCOCC2)cc1NC(=O)CSc1nc(N)cc(=O)[nH]1", "Potency": "inconclusive [inhibitor, single point]"}
{"smiles": "COCCn1c(C)cc(/C=C2/NC(=O)N(c3ccc(Cl)cc3)C2=O)c1C", "Potency": "inactive"}
{"smiles": "O=C(c1ccccc1)C(Cn1cncn1)C(Sc1ccccc1)c1ccccc1", "note": "(stereo not given)", "Potency": "inconclusive [inhibitor, single point]"}
{"smiles": "N#C/C(=C(/O)CCCl)c1ccccn1", "Potency": "inconclusive [inhibitor, partial curve]"}
{"smiles": "Cc1cc(NC(=O)C2CCCCC2)nc2c1c(=O)oc1ccccc12", "Potency": "inconclusive [inhibitor, partial curve]"}
{"smiles": "CCOC(=O)C1(CCc2ccccc2)CCN(Cc2cccc3nccnc23)CC1", "Potency": "inconclusive [inhibitor, partial curve]"}
{"smiles": "Cc1csc(NC(=O)CCc2ccc(S(=O)(=O)N3CCOCC3)cc2)n1", "Potency": "inconclusive [inhibitor, partial curve]"}
{"smiles": "Nc1ncnc2c1nc(Sc1ccc(Cl)cc1)n2[C@H]1O[C@@H]2COP(=O)(O)O[C@H]2[C@@H]1O", "Potency": "inactive"}
{"smiles": "O=C(NC(=S)Nc1ccc(S(=O)(=O)N2CCCC2)cc1)C1CCC1", "Potency": "inconclusive [inhibitor, single point]"}
{"smiles": "Cc1ccc(C(=O)NCCNc2ccc([N+](=O)[O-])cc2C(F)(F)F)cc1", "Potency": "inconclusive [inhibitor, single point]"}
{"smiles": "Nc1ncnc2c1ncn2[C@@H]1O[C@H](COP(=O)(O)OP(=O)(O)OP(=O)(O)OP(=O)(O)OC[C@@H]2O[C@H](n3cnc4c(N)ncnc43)[C@@H](O)[C@H]2O)[C@@H](O)[C@H]1O", "Potency": "inconclusive [inhibitor, single point]"}
{"smiles": "CCOC(=O)NC(=O)CSc1nc(C)cc(C)c1C#N", "Potency": "inconclusive [inhibitor, partial curve]"}
{"smiles": "O=C(Nc1ccccc1Cl)/C(Cl)=C(\\Cl)S(=O)c1ccccc1", "note": "(stereo not given)", "Potency": "active: 10 µM"}
{"smiles": "Cc1ccc2nc(-c3ccc(N4C(=N)SC5CS(=O)(=O)CC54)cc3)sc2c1", "note": "(stereo not given)", "Potency": "inconclusive [inhibitor, partial curve]"}
{"smiles": "Nc1n[nH]c(N)c1N=Nc1ccc(Cl)cc1Cl", "Potency": "inactive"}
{"smiles": "Cc1cccc(OC2CCN(Cc3c(C(=O)N4CCCC4)nc4ccccn34)CC2)c1", "Potency": "inconclusive [inhibitor, partial curve]"}
{"smiles": "O=c1[nH]c2ccc(S(=O)(=O)N3CCN(C4CCCCC4)CC3)cc2[nH]c1=O", "Potency": "inconclusive [inhibitor, single point]"}
{"smiles": "Oc1ccccc1C(=S)N1CCN(c2cccc(Cl)c2)CC1", "Potency": "active: 10 µM"}
{"smiles": "O=C(Nc1ncccn1)c1ccc([N+](=O)[O-])cc1", "Potency": "inactive"}
{"smiles": "O=C(O)COc1ccc(/C=N/NC(=O)c2ccccc2Br)cc1", "Potency": "inconclusive [inhibitor, single point]"}
{"smiles": "Fc1ccc(Nc2ncnc3sc4c(c23)CCC4)cc1F", "Potency": "inactive"}
{"smiles": "CCc1ccc2[nH]c3nc(SCc4nnc(-c5ccc(C)cc5)o4)nnc3c2c1", "Potency": "inactive"}
{"smiles": "Cn1ccnc1SCc1cc(=O)[nH]c2ccccc12", "Potency": "inactive"}
{"smiles": "COc1ccc(S(=O)(=O)N2CCCN(CC(=O)Nc3ccc4c(c3)OCO4)CC2)cc1", "Potency": "inconclusive [inhibitor, partial curve]"}
